PubChem BioAssay AID1508623 (National Center for Advancing Translational Sciences (NCATS), 2021)
In all, about 48,000 compounds went through this assay and about 450 (0.94%) were called active. Inconclusive results (about 19%) are left out. Calls follow the shape of the dose curve; as a rule, active = well fitted inhibition curve with a large enough effect; inconclusive = small, poorly fitted or top-dose-only effect; inactive = no such curve, though single readings can be large or run the other way. This is one part of the list.

Test: Primary qHTS for Identification of Small Molecule Inhibitors of Huntingtin Promoter Activity; also: nearly all actives have a fitted effect of over 50% in size
Conditions: HEK293 HTT promoter firefly luciferase reporter (activity 0% = vehicle and -100% = no light), 24 h; series mostly up to 57.5 µM; activity change, negative = inhibition: at the top concentration
How it was run: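 HEK293 Fluc reporter, 2,500 cells/well, 24 h pre-culture; cpds up to 57.5 uM final, 24 h 37 degrees C; Dual-Glo, 10 min RT; normalized vehicle = 0%, zero RLU = -100%.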

Activity change, negative = inhibition, inactive:
Cc1ccc2c(=O)c(C(=O)c3ccccc3)cn(CC(=O)Nc3ccccc3C)c2n1 8.29%
O=C(COc1ccccc1F)Nc1ccc2nc(SCC(=O)N3CCCC3)sc2c1 14.1%
COc1ccc(CNC(=O)c2cc3c(=O)[nH]c4ccccc4c3n2C)c(OC)c1 -10.9%
COc1ccc(Cl)cc1NC(=O)NCc1noc2ccccc12 -24.5%
Cc1ccc(-c2c(C(=O)N(C)Cc3ccccc3)oc(=O)c3ccccc23)cc1 -26.5%
O=C(CN1CCCN(Cc2cccc(F)c2)S1(=O)=O)Nc1ccc2c(c1)OCCO2 0.0904%
O=C(NCC(c1cccnc1)N1CCc2ccccc2C1)C(=O)Nc1ccc(F)cc1F (configuration not stated) -18.7%
Cc1cccc(-c2nc(C)c(CCNC(=O)c3cccs3)s2)c1 2.77%
CC(C)c1ccc(NC(=O)CCNS(=O)(=O)c2ccc3c(c2)oc(=O)n3C)cc1 -9.75%
O=C(CCS(=O)(=O)c1nc(-c2ccc3c(c2)OCO3)cc(C(F)(F)F)n1)Nc1ccc(F)cc1F 4.5%
COC(=O)c1nnn(-c2ccc(Cl)cc2)c1C(=O)OC 2.93%
Cc1ccc(-n2ncc(C(=O)N3CCN(C(=O)c4ccco4)CC3)c2C2CCN(C(=O)OC(C)(C)C)CC2)cc1 7.37%
CCS(=O)(=O)c1ncc(Cl)c(C(=O)Nc2c(C(=O)c3ccc(C)cc3)oc3ccccc23)n1 -8.81%
COc1cccc(-c2cn3c(n2)sc2cc(C(=O)NCCC4=CCCCC4)ccc23)c1 -1.32%
Cc1cccc(CCNC(=O)c2nn(C)c3c2CSc2ccccc2-3)c1 -8.18%
CCOc1ccc(CN(C(=O)c2cc(=O)c3cc(Cl)ccc3o2)C2CCS(=O)(=O)C2)cc1 (configuration not stated) -2.19%
CCCCOC(=O)c1c(C)oc2ccc(NS(=O)(=O)c3ccc(F)cc3C)cc12 -19.3%
COc1ccc(-c2cc(C(F)(F)F)n3nc(C(=O)Nc4sc5c(c4C(=O)OC(C)C)CCCC5)cc3n2)cc1OC -16.6% [at 11.5 µM]
NC(N)=NC(=O)c1nc(Cl)c(N)nc1N
CCN(CC)C(=O)C1CCN(c2cc(C)nc3c(-c4ccc(OC)c(OC)c4)c(C)nn23)CC1 -5.2%
Cn1c(C(=O)N2CCCC(C(=O)N3CCN(c4ccccc4)CC3)C2)cc2sccc21 (configuration not stated) -22.8%
CCCCNC(=O)CSC1=Nc2ccccc2C2=NC(CCC(=O)NCc3ccccc3OC)C(=O)N12 (configuration not stated) -8.8%
COc1ccc(NC(=O)Cn2c(=O)n(-c3ccc(C)c(C)c3)c(=O)c3c4c(sc32)CCCCC4)cc1Cl -14.5%
CCc1ccc(NC(=O)CSc2cn(CC(=O)N3CCOCC3)c3ccccc23)cc1 17.2%
O=c1oc2c(O)c(O)cc3c(=O)oc4c(O)c(O)cc1c4c23
COc1cc2c(cc1OC)n(CC(=O)Nc1ccccc1)c(=O)n1nc(-c3ccccc3)nc21 -7.31%
COC(=O)c1ccc(NC(=O)C(=O)NCCc2sc3nc(-c4ccc(OC)cc4)nn3c2C)cc1 -2.81%
O=C(CCn1c(=O)c2cccn2c2cccnc21)NCc1ccc(Cl)cc1 1.25%
COc1ccccc1NC(=O)C1=C(C)Nc2c(C(=O)Nc3cccc(C)c3)cnn2C1c1ccccc1C (configuration not stated) -14.1%
Cc1ccc(/C=C/c2nc3ccccc3n2S(=O)(=O)c2cccc(Cl)c2)cc1 18.3%
Cc1cccc(OC(=O)c2nc(SCc3ccccc3F)ncc2Cl)c1 1.23%
Cc1ccc(Nc2nc3c(S(=O)(=O)c4ccccc4)nnn3c3ccc(Cl)cc23)c(C)c1 -23.8%
CCCCC(CC)CNC(=O)CC(C)OC(=O)CCC(=O)O (configuration not stated) 28.8%
O=C(NCC(c1ccc2c(c1)OCO2)N1CCOCC1)C(=O)Nc1ccc(Cl)cc1 (configuration not stated) -26.9%
Cc1ccccc1OCCSc1nnc(-c2ccc([N+](=O)[O-])cc2)o1 2.04%
CC(=O)CC(c1ccccc1)c1c(O)c2ccccc2oc1=O (configuration not stated)
Oc1cccc(-c2nc(-c3cccs3)c(-c3cccs3)[nH]2)c1 -11.6%
COc1ccccc1NC(=O)c1cc2c(n(-c3ccc(C)cc3)c1=O)CC(C)(C)CC2=O -8.01%
CCc1cc2c(cc3c(=O)n(CC(=O)NC(C)C)nc(CC)n32)s1 0.408%
COc1ccc(CNC(=O)CSCc2ccc(C)cc2)c(OC)c1 -20.2%
CCC1CCCCN1CCCNC(=O)c1sc2nc(C)cc(C)c2c1-n1cccc1 (configuration not stated) 0.594%
NS(=O)(=O)c1cc2c(cc1Cl)NC(C1CC3C=CC1C3)NS2(=O)=O (configuration not stated) 0.0449%
O=C1NS(=O)(=O)c2ccccc21 0.551%
COc1ccc(CNC(=O)Cn2c(=O)n3nc(-c4cccc(F)c4)nc3c3ccccc32)cc1OC 2.47%
COc1ccc(CNC(=O)C2=Cc3cccc(OC)c3OC2)cc1OC -24.4%
O=C(Nc1ccc(F)cc1F)c1cc(CN2CCOCC2)on1 27.9%
CCc1ccc(CNC(=O)c2ccc(-n3c(C)cc4c3CCC(C)C4)cc2)cc1 (configuration not stated) 3.82%
COc1cccc(C(c2sc3nc(-c4ccco4)nn3c2O)N2CCC3(CC2)OCCO3)c1 (configuration not stated) 0%
COc1cc(Br)c(C2CC(=O)Nc3cc4c(cc32)OCCO4)cc1OC (configuration not stated) -35.4%
Cc1cccc(NC(=O)C(Cc2ccccc2)N2Cc3ccccc3C2=O)c1C (configuration not stated) -27.8%
CCc1nn(CC(=O)NCCN(CC(C)C)CC(C)C)c(=O)c2cc3sc(C)cc3n12 -18.9%
COc1ccc(-c2nc(CSc3nnc(C)n4c3cc3sccc34)c(C)o2)cc1 -12.8%
Oc1ccccc1-c1nc2ccc(Cl)cn2c1Nc1ccc2c(c1)OCCO2 -6.39%
CCS(=O)(=O)N1CCc2cc(C(=O)Nc3cccc(NC(C)=O)c3)ccc21 4.01%
COc1ccc(-c2ccc(=O)n(CC(=O)Nc3ccccc3C(F)(F)F)n2)cc1 19.9%
Cc1ccc(C2c3[nH]c4ccccc4c3CCN2C(=O)CSc2ccccc2)cc1 (configuration not stated) -29.9%
Cc1ccccc1OCC(=O)Nc1nnc(S(=O)(=O)N2CCCCCC2)s1 -31.3%
CCc1nn2c(=O)cc(COC(=O)c3ccccc3NC(=O)c3ccc(C(C)(C)C)cc3)nc2s1 3.25%
c1coc(CNc2ncnc3nc[nH]c23)c1 -9.57%
Cc1ccc(-n2c(-c3cccc(C)c3)nc3c(cnn3-c3ccccc3)c2=O)cc1 -0.413%
CN(C)CCCOC1(Cc2ccccc2)CCCCCC1 -4.88%
O=C(CCCn1c(=O)[nH]c2ccccc2c1=O)NCc1ccccc1Cl 4.37%
